Data: PubChem BioAssay AID1347073 (National Center for Advancing Translational Sciences (NCATS), 2019)
Out of some 45,000 compounds screened, about 200 (0.44%) were called active. Inconclusive results (about 7%) are left out. The call rests on the fitted dose curve; in most records, active means well fitted activation curve with a large enough effect; inconclusive means small, poorly fitted or top-dose-only effect; inactive means no such curve, though single readings can be large or run the other way. The list shows a part of the results.

test: qHTS of TDP-43 Inhibitors: NCGC Sytravon Library Screen; settings: yeast TDP-43 toxicity rescue, BacTiter-Glo growth, 24 h; at 46.1 µM (top of the series); further: 0% is about no effect; nearly all actives have a fitted effect of over 55% in size
Source text: The goal of this project is to identify new chemical probes capable of reversing the toxicity associated with TDP-43 which is associated with frontotemporal lobar degeneration and amyotrophic lateral sclerosis. These compounds will provide a complementary approach to deciphering the tangled mechanisms of toxicity and protection that we have uncovered through genome-wide genetic screens and are beginning to uncover in a large-scale proteomics analysis with mass spectroscopy. To this end, a miniaturized assay was developed to be screened against the Molecular Libraries Small Molecule Repository (MLSMR) to discover TDP-43 inhibitors. Please note that in the set-up this yeast-based assay compounds that inhibit as TDP-43, have a read-out as activators. NIH Chemical Genomics Center [NCGC] NIH Molecular Libraries Probe Centers Network [MLPCN] Assay Submitter (PI): Susan Lindquist, Whitehead Institute/MIT MLPCN Grant: R21 NS060957
Dispense 2.5 microL yeast galactose medium per 1536-well plate, pin compound, dispense 2.5 microL TDP-43 expressing yeast in galactose medium at OD600=0.02 (pregrown in raffinose medium to mid-log phase) per well, incubate for 24 hr at 30 deg C, and cell growth will be measured using 5 microL of Bactiter/Glo reagent to entire plate and read using Luminescence Protocol in ViewLux.

| SMILES | growth rescue (activation) |
| --- | --- |
| CN(C)CC1CCCCC1OC(=O)Cc1ccc(Cl)c([N+](=O)[O-])c1 (configuration not stated) | inactive: 20.4% |
| Cc1cc(N2CCNCC2)nc2ccccc12 | inactive: 2.09% |
| C#C[C@]1(O)CCC2C3C(=O)C=C4C=CCC[C@]4(C)C3CC[C@@]21C (some centres not stated) | inactive: 11.6% |
| C[C@]12CCC3C(CC[C@H]4C[C@H](O)[C@H](O)C[C@]34C)C1CC[C@@H]2O (some centres not stated) | inactive: 16.9% |
| CN1CCN(Cc2cn3cccnc3n2)CC1 | inactive: 5.66% |
| O=C(Cc1ccccc1)OCC(=O)c1ccc(F)cc1 | inactive: 22.8% |
| Cc1nc(CCl)cc(=O)[nH]1 | inactive: 5.92% |
| O=c1[nH]c(=O)n(Cc2ccco2)c(O)c1/C=N/N1CCCCC1 | inactive: 9.98% |
| CCCCC/C(=N/O)c1c(C)[nH]c2ccccc12 | inactive: 28.8% |
| O=C(O)c1ccc(-n2c(O)c(/C=C3\C=Nc4ccccc43)c(=O)[nH]c2=O)cc1 | inactive: 5.34% |
| CCN1CCN(S(=O)(=O)c2cnc(Cl)c(Br)c2)CC1 | inactive: -10.5% |
| CCC(=O)c1ccc(OC(=O)N(C)c2ccccc2)cc1 | inactive: -1.82% |
| CC(=O)N1CCN(c2ccc([N+](=O)[O-])cc2C=C2C(=O)NC(=O)NC2=O)CC1 | inactive: -12.2% |
| C[C@@H]1CC[C@@]2(NC1)O[C@H]1C[C@H]3[C@@H]4CC=C5C[C@@H](O)CC[C@]5(C)[C@H]4CC[C@]3(C)[C@H]1[C@@H]2C | inactive: -0.0231% |
| Cc1ccc(-c2nc3ccccc3c(=O)n2-c2ccccn2)cc1 | inactive: 14.9% |
| CCOc1ccc(N=Cc2c(O)n(-c3cc(C)cc(C)c3)c(=O)[nH]c2=O)cc1 | inactive: 4.4% |
| O=c1[nH]c(=S)n(-c2ccccc2)c(O)c1C=NCc1ccccn1 | inactive: 10.4% |
| COc1ccc(-c2nn(Cc3ccccc3)cc2C(=O)NC2CC2)cc1OC | inactive: 16.8% |
| COc1cccc(C(=O)C2CCCN(Cc3ccc4nsnc4c3)C2)c1 (configuration not stated) | inactive: 13.6% |
| CC(C)OC12Oc3ccccc3C=C1N1CCC2CC1 (configuration not stated) | inactive: 6.21% |
| Cc1cc(/C=C2/C(=O)NC(=O)N(Cc3ccco3)C2=O)c(C)n1-c1ccc(C(=O)O)cc1 | inactive: -7.65% |
| C[C@]12CCC3C(CC[C@H]4C[C@@H](O)CC[C@]34C)C1CC[C@@H]2OC(=O)[C@H](N)CCCCN (some centres not stated) | inactive: -26.9% |
| C/C(=N\N1CCCCCC1)c1c(O)n(-c2ccc(Cl)cc2)c(=O)[nH]c1=O | inactive: -7.27% |

| SMILES | growth rescue (activation) |
| --- | --- |
| O=c1[nH]c(=O)n(Cc2ccccc2Cl)c(O)c1/C=C1/C=CC=N1 | inactive: -20.4% |
| COc1ccc(CN2CCN(C(=O)Cc3ccccc3)CC2)c(OC)c1 | inactive: 11.8% |
| CCNCCNc1ccc([N+](=O)[O-])c2cccnc12 | inactive: 8.08% |
| COCCO[C@H]1CC[C@@]2(C)C(=CCC3C2CC[C@@]2(C)C3CC[C@]2(C)O)C1 (some centres not stated) | inactive: 3.73% |
| CC(C)C(=O)NC(Oc1ccccc1Cl)C(Cl)(Cl)Cl (configuration not stated) | inactive: 8.62% |
| Cn1c(O)c(/C=C2\C=Nc3ccc(Br)cc32)c(=O)n(C)c1=O | inactive: 11.8% |
| C[C@]12CCC3C(CC[C@H]4C[C@H](O)CC[C@]34C)C1C[C@H](O)[C@H]2O (some centres not stated) | inactive: 21.1% |
| COC(=O)c1cccc(N=Cc2c(O)n(Cc3ccc(F)cc3)c(=O)[nH]c2=O)c1 | inactive: 1.81% |
| CCCCn1c(O)c(/C=N/N2CCCCC2c2cccnc2)c(=O)[nH]c1=S (configuration not stated) | inactive: -2.8% |
| Cc1cc(C=C2C(=O)NC(=S)NC2=O)c(C)n1C1CCCC1 | inactive: 8.65% |
| CC(Cc1ccccc1)NC(=O)Cc1ccc(N(C)C)cc1 (configuration not stated) | inactive: 2.09% |
| Cc1nn(Cc2ccccc2)c(Cl)c1C(=O)O | inactive: 18% |
| Cc1ccc(-n2c(O)c(C=Nc3ccc(S(N)(=O)=O)cc3)c(=O)[nH]c2=O)cc1 | inactive: -2.35% |
| C/C(=N\Nc1ccccc1)c1c(O)[nH]c(=O)[nH]c1=O | inactive: 2.82% |
| Cc1nc2ccccn2c1P(=S)(N1CCCCC1)N1CCCCC1 | inactive: 18.2% |
| COc1ccccc1-n1c(-c2ccccc2Br)nc2ccccc2c1=O | inactive: -2.42% |
| COc1ccc(CCn2c(O)c(C=Nc3ccc(NC(C)=O)cc3)c(=O)[nH]c2=O)cc1OC | inactive: 4.08% |
| COc1ccc(CN2CC=C(c3ccc(F)cc3)CC2)cc1Br | inactive: -8.36% |
| COc1cc2c(C(=O)O)c(C)n(C)c2cc1Br | inactive: 14.1% |
| O=C(O)c1cn(Cc2ccccc2)nc1-c1ccccc1 | inactive: 6.31% |
| Cc1cccc(-n2c(-c3ccc([N+](=O)[O-])cc3)nc3ccccc3c2=O)c1 | inactive: 9.6% |
| c1ccc(-c2[nH]c(-c3ccccc3)[n+](CC3CO3)c2-c2ccccc2)cc1 (configuration not stated) | inactive: 22.7% |
| CCCCN(Cc1ccccc1)C1CCN(CCc2ccccc2)CC1 | inactive: -0.443% |

| SMILES | growth rescue (activation) |
| --- | --- |
| CCC12CN3CC(CC)(CN(C1)C3c1cccnc1)C2=O (configuration not stated) | inactive: 29.2% |
| CCc1ccc(CN2CCN(Cc3cc(Br)ccc3O)CC2)cc1 | inactive: -16.8% |
| CN1c2ccc([N+](=O)[O-])cc2CC2(C(=O)NC(=O)N(c3ccccc3)C2=O)C1c1ccccc1 (configuration not stated) | inactive: 9.61% |
| Cc1ccc(-n2c(C)cc(/C=C3\C(=O)NC(=O)N(C)C3=O)c2C)cc1C | inactive: 22.3% |
| COc1cc(C(=O)N/N=C/C23CC[C@@H](O)CC2(O)CC[C@@H]2[C@@H]3CCC3(C)C(C4=CC(=O)OC4)CCC23O)ccc1O (some centres not stated) | inactive: 12.6% |
| Cc1ccccc1-n1c(/C=C/c2ccccc2F)nc2ccccc2c1=O | inactive: 6.33% |
| COc1ccc(C2N(c3cc(C)on3)C(=O)C3CCCN32)cc1 (configuration not stated) | inactive: -14.6% |
| C[C@]12CCC3C(CCC4=C/C(=N/OCC(=O)NC(CCC(=O)O)C(=O)O)CC[C@@]43C)C1CCC2O (some centres not stated) | inactive: 10.7% |
| Cc1cc(=O)oc2cc(OCC(=O)N3CCN(Cc4ccccc4)CC3)ccc12 | inactive: 1.76% |
| O=c1c2ccccc2nc(Cc2ccccc2)n1-c1ccc(O)cc1 | inactive: -8.69% |
| C=CCn1c(O)c(C(C)=NC2CC2)c(=O)[nH]c1=O | inactive: -19.1% |
| Brc1cc2c(cc1CN1CCN(c3ccccc3)CC1)OCCO2 | inactive: 13.1% |
| N#Cc1c(N2CCNCC2)nc(-c2ccco2)c2c1CCCC2 | inactive: 0.21% |
| CN(C)C1(CNC(=O)Cc2ccccc2F)CCCCC1 | inactive: 9.31% |
| COc1ccc(-n2c(/C=C3\C(=O)Nc4ccccc43)nc3ccccc3c2=O)cc1 | inactive: -2.5% |
| COc1ccccc1OCC(=O)N1CCCC(N2CCN(c3ccc(F)cc3)CC2)C1 (configuration not stated) | inactive: 12.4% |
| O=C(Cn1ccc2ccccc2c1=O)NCC(=O)N1CCC2(CC1)OCCO2 | inactive: 10.1% |
| CCOC(=O)C1(c2ccccc2)CCN(CC(=O)Nc2ccc(C)cc2)CC1 | inactive: 6.89% |
| O=C1NC(=O)C(=Cc2ccc(N3CCOCC3)o2)C(=O)N1 | inactive: 8.94% |
| O=c1c2ccccc2nc(-c2ccccc2)n1-c1ccc(O)cc1 | inactive: -3.34% |
| CN(C(=O)Oc1ccc(C(=O)c2ccc(Cl)cc2)cc1)c1ccccc1 | inactive: 12.9% |
| CCc1ccc(CN2CCN(C(=O)Cc3ccccc3)CC2)cc1 | inactive: 4.63% |
| O=C1NC(=O)C(=Cc2ccc(N3CCOCC3)cc2)C(=O)N1 | inactive: 6.16% |

| SMILES | growth rescue (activation) |
| --- | --- |
| Cc1ccsc1C(=O)C1CCCN(Cc2cccc(OCCO)c2)C1 (configuration not stated) | inactive: 10.2% |
| N#CC1=C(N)Oc2cc(O)ccc2C1c1ccc2c(c1)OCO2 (configuration not stated) | inactive: -15.1% |
| C[C@]12C[C@@H](O)[C@H](O)CC1=CCC1C2CC[C@]2(C)C(=O)CCC12 (some centres not stated) | inactive: 31.8% |
| N#Cc1ccccc1OCC(=O)N1CCN(CC(=O)Nc2ccc(F)cc2)CC1 | inactive: 18.2% |
| CN(C)c1ccc(/C=C/[N+](=O)[O-])cc1 | inactive: -4.59% |
| COc1ccc(CNCCc2c[nH]c3ccccc23)c(OC)c1OC | inactive: 7.63% |
| O=C(c1cccc2ccccc12)C1CCCN(Cc2ccon2)C1 (configuration not stated) | inactive: 17.2% |
| O=C(Nc1cccc(OC(=O)N2CCCCC2)c1)N1CCCCC1 | inactive: 2.44% |
| O=c1[nH]c(=O)n(-c2cccc(F)c2)c(O)c1/C=C1\C=Nc2ccccc21 | inactive: 3.9% |
| COc1cc2c(c(OC)c1OC)-c1ccc(O)c(=O)cc1C(NC(C)=O)CC2 (configuration not stated) | inactive: 11.5% |
| Cc1cccc2c(CCN)c[nH]c12 | inactive: 6.61% |
| COc1ccc(CNCCc2c(C)[nH]c3ccc(OC(F)(F)F)cc23)c(OC)c1 | inactive: -13.7% |
| COc1cc(C)cc(CN2CC=C(c3ccccc3)CC2)c1O | inactive: 9.04% |
| O=[N+]([O-])c1ccc(NC2CCN(Cc3ccccc3)CC2)c2ccncc12 | inactive: -2.96% |
| O=c1[nH]c(=O)n(Cc2ccco2)c(O)c1C=NC1CCN(Cc2ccccc2)CC1 | inactive: -8.39% |
| Cc1ccccc1CN1CCNCC1 | inactive: 2.71% |
| Nc1ccc(CC(N)c2csc(Nc3ncccn3)n2)cc1 (configuration not stated) | inactive: 3.09% |
| N=C1c2ccccc2CN1c1ccc(F)c([N+](=O)[O-])c1 | inactive: 22% |
| CCOP(=O)(OCC)c1cc(CC)ccc1O | inactive: 9.56% |
| Cc1cc(/C=C2\C(=O)NC(=O)N(Cc3ccco3)C2=O)c(C)n1-c1ccc(C(=O)O)cc1 | inactive: 5.88% |
| C[C@]12CCC3C(CC[C@@H]4C[C@@H](O)CC[C@]34C)C1CC[C@@H]2O (some centres not stated) | inactive: 22.8% |
| CCn1cc(C=C2C(=O)NC(=O)NC2=O)c2ccccc21 | inactive: 9.89% |
| CN1CCN2c3ccc(N)cc3CC3(C(=O)NC(=O)NC3=O)C2C1 (configuration not stated) | inactive: -4.72% |
